# Laboratory results taken from patent publication US20210299101A1, “SYSTEMS, METHODS, AND KITS FOR DIAGNOSTICS AND TREATMENT OF VIRAL RESPIRATORY INFECTION” (priority 2020, published 2021).
# Read-outs that look alike come from different tables or passages of the source. Non-standard residues stand in square brackets, D forms with d. Residues, ends and D or L forms follow the SMILES beside them. *: point of attachment. dPhe(4-NHCONH2) = NC(=O)Nc1ccc(C[C@@H](N)C(=O)O)cc1; Dihydroorotyl(S) = O=C1C[C@@H](C(=O)*)NC(=O)N1; dPhe(4-Cl) = N[C@H](Cc1ccc(Cl)cc1)C(=O)O; Phe(4-NH2) = Nc1ccc(C[C@H](N)C(=O)O)cc1; d2Nal = N[C@H](Cc1ccc2ccccc2c1)C(=O)O; Lys(iPr) = CC(C)NCCCC[C@H](N)C(=O)O; d3Pal = N[C@H](Cc1cccnc1)C(=O)O
# Experiments:
# [1] = tested on: SARS-CoV-2; type: in vivo
# [2] = tested on: SARS-CoV-2; type: in vivo, human
# [3] = tested on: SARS-CoV-2
# [4] = tested on: SARS-CoV-2; type: in vivo, human; remark: listed apart in the source
# [5] = tested on: SARS-CoV-2; conditions: monitored one month; 300 mg orally twice daily; of 20 subjects (standard care 3 of 20)
# [6] = tested on: SARS-CoV-2; remark: listed apart in the source
# [7] = tested on: SARS-CoV-2; type: in vivo; conditions: monitored one month; 75 mg/m2 IV over 1 hour; of 8 subjects (standard care 2 of 8)
# [8] = tested on: SARS-CoV-2; type: in vivo, human; conditions: monitored one month; 300 mg orally once daily; of 50 subjects (standard care 8 of 40)
# Procedure: Example 19: A controlled study was conducted on 90 male patients with average age of 51 years old. […] The treatment arm was prescribed nilutamide (300 mg) orally once daily at the start of the trial, the control arm received standard care.
# The patients BCRSS score was 1.3.
# [9] = Brescia-COVID Respiratory Severity Scale, admitted patients only
smiles,measurement,setting,value
C[C@]12CC[C@H](O)CC1=CC[C@@H]1[C@@H]2CC[C@]2(C)C(c3cccnc3)=CC[C@@H]12 [abiraterone],average BCRSS score of admitted patients,[1]; 4 admitted patients (standard care 4.7),1.8
same,subjects admitted to the hospital after their first visit,"[1]; monitored one month, 500 mg twice daily, of 75 subjects (standard care 15 of 75)",4 subjects
CNC(=O)c1ccc(N2C(=S)N(c3cnc(C#N)c(C(F)(F)F)c3)C(=O)C23CCC3)cc1F [apalutamide],average BCRSS score of admitted patients,"[2]; Brescia-COVID Respiratory Severity Scale, 13 admitted patients (placebo 5.4)",3.2
same,subjects admitted to the hospital after their first visit,"[2]; monitored one month, 240 mg (60 mg, 4 tablets daily), of 200 subjects (placebo 49 of 200)",13 subjects
CC(O)(CS(=O)(=O)c1ccc(F)cc1)C(=O)Nc1ccc(C#N)c(C(F)(F)F)c1 (stereo not shown) [bicalutamide],average BCRSS score of admitted patients,[3]; [9],5.3
same,subjects admitted to the hospital after their first visit,"[3]; monitored one month, bicalutamide 50 mg 1 tablet daily, each arm of 88",9 subjects
same,average BCRSS score of admitted patients,[4]; 6 admitted patients (standard care 4.1),1.9
same,subjects admitted to the hospital after their first visit,"[4]; monitored one month, 50 mg once daily, of 50 subjects (standard care 17 of 50)",6 subjects
CC(O)c1cc(C(=O)N[C@@H](C)Cn2ccc(-c3ccc(C#N)c(Cl)c3)n2)[nH]n1 (stereo partly shown) [darolutamide],subjects admitted to the hospital after their first visit,[5],1 subjects
CC(=O)N[C@H](Cc1ccc2ccccc2c1)C(=O)N[C@H](Cc1ccc(Cl)cc1)C(=O)N[C@H](Cc1cccnc1)C(=O)N[C@@H](CO)C(=O)N[C@@H](Cc1ccc(NC(=O)[C@@H]2CC(=O)NC(=O)N2)cc1)C(=O)N[C@H](Cc1ccc(NC(N)=O)cc1)C(=O)N[C@@H](CC(C)C)C(=O)N[C@@H](CCCCNC(C)C)C(=O)N1CCC[C@H]1C(=O)N[C@H](C)C(N)=O [degarelix] (Ac-[d2Nal][dPhe(4-Cl)][d3Pal]S[Phe(4-NH2)](Dihydroorotyl(S))[dPhe(4-NHCONH2)]L[Lys(iPr)]P[dA]-NH2),average BCRSS score of admitted patients,[6]; [9],4.6
same,subjects admitted to the hospital after their first visit,"[6]; monitored one month, degarelix 120 mg subcutaneous at start, combination arm of 80, degarelix alone of 60",12 subjects
CC(=O)O[C@@]12CO[C@@H]1C[C@H](O)[C@@]1(C)C(=O)[C@H](O)C3=C(C)[C@@H](OC(=O)[C@H](O)[C@@H](NC(=O)OC(C)(C)C)c4ccccc4)C[C@@](O)([C@@H](OC(=O)c4ccccc4)[C@H]21)C3(C)C [docetaxel],subjects admitted to the hospital after their first visit,[7],0 subjects
CC1(C)NC(=O)N(c2ccc([N+](=O)[O-])c(C(F)(F)F)c2)C1=O [nilutamide],subjects admitted to the hospital after their first visit,[8],3 subjects
